Results are given in words; binding and its absence hold for the method and conditions named. In cells and extracts the contact can be indirect. Some entries that bind do so weakly or less than the wild type.
Biological target: SRSF1 (endogenous, mouse macrophages) (mouse (endogenous in BMDMs)) (UniProt Q6PDM2)
Assay: co-IP; nuclear extracts of mouse macrophages (WT BMDMs; control siRNA macrophages) treated with LPS for the indicated times; IP with anti-IRAK2, anti-SRSF1 or anti-ALYREF; western blot

Protein sequences, listed by entry. Tags and fused reporters are not part of them.
UniProt Q6PDM2: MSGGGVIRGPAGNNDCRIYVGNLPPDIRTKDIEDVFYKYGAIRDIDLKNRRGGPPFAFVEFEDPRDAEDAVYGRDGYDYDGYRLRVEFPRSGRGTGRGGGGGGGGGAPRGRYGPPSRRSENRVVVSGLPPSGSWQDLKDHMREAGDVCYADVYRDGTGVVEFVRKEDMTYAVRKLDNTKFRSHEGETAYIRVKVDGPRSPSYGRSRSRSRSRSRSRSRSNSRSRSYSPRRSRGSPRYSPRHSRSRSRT

B1: IRAK2 (endogenous, wild-type macrophages) (protein, UniProt Q8CFA1 1-622)
chain: MACYIYQLPSWVLDDLCRNIDTLSEWDWMQFASYVITDLTQLRKIKSMERVQGVSITRELLWWWSMRQATVQQLVDLLCHLELYRAAQIVLSWKPVPESTSPLPAFPEAVKPGAVATSRRNLKDEQEKVRPVKPRSLLDTGPIMAGAQRQRPCEMDAPCSLKTDAPDSPQSKYCSTSTSAPKQERLLGLPGDRLFWSEADVVQATEDFDQSHRISEGTFADIYQGQRNGVAFAFKKLREVAGSSPGSMDRFLQAEMQLCLRCCHANVLPLLGFCTGRQFHSLIYPYMANGSLHDRLWAQGNSDMLPWPQRASICSGLLLAVEHLHSLDIIHSNVKSANVLLDQHLNPKLAHPVAHPHPDNKKTKYTVMRTHLFQASAAYLPEHFIRVGQLTKQVDIFSCGIVLAEVLTGIPAMDKDRSPVYLKDLLLSEIPNSTSSVCSRKTSMGKAVVKEICQRHVEKRAGLLPEACEEAWATAVSVCLRRRNASVEEARVSLAGVEEQLRGQLSLPWSRVSEATGSSSNTPEETDDVDNSSLSVPSLVMMASCPGAASSPLFTGHGAAQPSTSGRQEADSSSEACTGPQTPQNATETSWKIEINEAKRRLMENIVLYKEERLDSSELFGP
- binding: binds

— paper PMC5675595
